In patent US20240076343A1 (CEPHALON, published 2024) one finds EC50 data, which are given here for one molecule.

Test [1] addresses T1, native human PD-1 on PMA/ionomycin-activated primary human T cells (human, UniProt Q15116 25-288).
T1 construct: whole, on cells; also called native hPD-1
As to the kind of experiment: flow cytometry, activated human CD3+CD4+ T cells.

Test [2] deals with T1, native human PD-1 on …. As to the kind of experiment: flow cytometry, activated human CD3+CD8+ T cells.
The target in test [3] is T2, native cynomolgus PD-1 on PMA/ionomycin-activated cynomolgus T cells (cynomolgus, UniProt B0LAJ3 25-288). The test is described as follows: flow cytometry, activated cynomolgus CD3+CD4+ T cells.
T2 sequence (B0LAJ3 entry or part of it limits assumed): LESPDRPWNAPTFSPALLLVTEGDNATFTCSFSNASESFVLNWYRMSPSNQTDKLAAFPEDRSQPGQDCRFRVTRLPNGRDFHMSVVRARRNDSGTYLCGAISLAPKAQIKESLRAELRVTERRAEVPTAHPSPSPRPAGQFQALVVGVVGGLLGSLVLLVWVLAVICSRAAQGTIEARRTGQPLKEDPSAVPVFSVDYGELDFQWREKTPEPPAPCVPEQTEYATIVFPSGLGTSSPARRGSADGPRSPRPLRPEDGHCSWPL
Test [4] addresses T2, native cynomolgus PD-1 on …. The test is described as follows: flow cytometry, activated cynomolgus CD3+CD8+ T cells.

T1 sequence (Q15116 25-288): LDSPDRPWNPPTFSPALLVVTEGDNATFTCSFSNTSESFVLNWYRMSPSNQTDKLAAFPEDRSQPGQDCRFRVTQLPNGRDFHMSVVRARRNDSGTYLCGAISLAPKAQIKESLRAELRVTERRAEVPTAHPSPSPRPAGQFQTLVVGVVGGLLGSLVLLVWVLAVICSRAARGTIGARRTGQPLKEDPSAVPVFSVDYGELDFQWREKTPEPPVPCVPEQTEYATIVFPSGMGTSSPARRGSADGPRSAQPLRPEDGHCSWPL

B1: 2H7-hIgG4-df-hIL-2 (T3A/D20A/R38E/C125A) (other)
heavy: EVQLLESGGGLVQPGGSLRLSCAASGFTFKDYCMTWVRQAPGKGLEWVSAIVYSGGSTYYADSVKGRFTISRDNSKNTLYLQMNNLRAEDTAVYYCAKYTRASYFYDAMDVWGQGTTVTVSSASTKGPSVFPLAPCSRSTSESTAALGCLVKDYFPEPVTVSWNSGALTSGVHTFPAVLQSSGLYSLSSVVTVPSSSLGTKTYTCNVDHKPSNTKVDKRV[not shown - human IgG4 Fc with S228P (EU numbers)]APASSSTKKTQLQLEHLLLALQMILNGINNYKNPKLTEMLTFKFYMPKKATELKHLQCLEEELKPLEEVLNLAQSKNFHLRPRDLISNINVIVLELKGSETTFMCEYADETATIVEFLNRWITFAQSIISTLT
light: EIVLTQSPGTLSLSPGERATLSCRASQSIGKSFLAWYQQKPGQAPRLLIYDASTRAADIPARFSGSGSGTDFTLTISSLEPEDFAVYYCQQYYDWPPLSFGGGTKVEIKRTVAAPSVFIFPPSDEQLKSGTASVVCLLNNFYPREAKVQWKVDNALQSGNSQESVTEQDSKDSTYSLSSTLTLSKADYEKHKVYACEVTHQGLSSPVTKSFNRGEC
Turning to B1, the 50% effective concentration (EC50) in test [1] turned out to be 0.04 nM; in test [2] it was 0.03 nM; in test [3], 0.04 nM; in test [4], 0.03 nM.
